# The full ranking holds about 33,000 sequences; the median of “E-score (-0.5 to 0.5)” is about -0.013, and the highest 2% start at about 0.3. The list shows a part of the results.
# Molecular target: T1, Msn1 (UniProt P22148)
# T1 sequence: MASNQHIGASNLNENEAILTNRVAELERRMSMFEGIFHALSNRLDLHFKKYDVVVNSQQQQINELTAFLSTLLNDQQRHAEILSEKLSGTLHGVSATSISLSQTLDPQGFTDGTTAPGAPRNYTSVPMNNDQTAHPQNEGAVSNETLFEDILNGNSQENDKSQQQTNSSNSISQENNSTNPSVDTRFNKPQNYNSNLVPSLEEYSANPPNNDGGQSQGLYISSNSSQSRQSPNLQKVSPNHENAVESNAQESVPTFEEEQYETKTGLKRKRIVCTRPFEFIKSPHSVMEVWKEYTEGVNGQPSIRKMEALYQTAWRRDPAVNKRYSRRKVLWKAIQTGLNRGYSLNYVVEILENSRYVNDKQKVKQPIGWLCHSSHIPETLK
# Test: PBM E-score (8-mer binding enrichment) (E-score (-0.5 to 0.5)); higher = stronger / more preferred TF binding; most listed sequences are background and not binding sites
# Conditions: protein concentration: 200 nM; construct: GST-full length
# Summary of the method: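 For each ungapped eight-base word taken together with its reverse complement, the Universal PBM Analysis Suite assigned an E-score. Binding data came from GST-tagged yeast transcription factors, applied at about 100-200 nM, on universal all-10-mer Agilent arrays made double-stranded by primer extension. Fluorescent anti-GST marked bound protein, and scans were normalised with masliner.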
row,Sequence,PBM E-score
1,TCGAACCA,0.0428
2,AAAGGAGA,-0.198
3,GCTTGACC,-0.0457
4,GGAAGCGA,-0.113
5,ACCGGCTA,0.0382
6,AAGGATAA,-0.0799
7,AGAAACGC,-0.16
8,ATGTCCGG,0.457
9,AAAGACTC,-0.134
10,GTGTTAAA,0.0297
11,ATATTAGA,0.247
12,CCATGCCG,0.0951
13,GGCAGGTA,-0.127
14,CCAAGGTA,-0.106
15,AGATATAC,0.055
16,AATGGAGG,-0.158
17,ATAGAGCC,-0.088
18,ACAGGAGG,-0.178
19,GCGACGGA,-0.0163
20,AAGGACAG,0.296
21,ATATCGTA,-0.112
22,GTTAGGTA,0.0357
23,CTGCGAAC,-0.0168
24,GTCTTCCA,-0.0761
25,ATAATTAC,0.168

row,Sequence,PBM E-score
1,ACGATAAT,0.0524
2,ACATAATG,0.256
3,GCACGTAA,-0.02
4,CGCTATAG,0.0146
5,ATCCGCAG,0.199
6,ACAACTAC,0.0351
7,GTAGTAAA,-2e-05
8,GGGGCCTA,-0.42
9,CTATCAAG,0.0621
10,GTCTTCAC,0.0473
11,AGCAAATC,0.0188
12,GGAGAGGA,-0.174
13,TAAATGTA,0.208
14,GAGGGTTA,-0.242
15,AGGGTCAC,-0.112
16,CCAATCCG,0.0273
17,CCCCGCAC,-0.103
18,AATGTAAC,-0.00877
19,AAATCTCA,0.126
20,CAGAATAC,0.0673
21,TGACCGCA,-0.0491
22,ATCTAGAC,0.0965
23,CTCGAAGA,-0.141
24,GACTTCCA,-0.0659
25,CATCTCAA,0.0838

row,Sequence,PBM E-score
1,GTCTGAGA,0.0529
2,CGAGTGAA,-0.071
3,CGTCTGCA,0.0663
4,GAAATGTA,0.245
5,CGCTCAGC,-0.0937
6,AAACGCCT,-0.0244
7,CAGATACG,0.00031
8,AGATATGA,0.152
9,GATCGTGA,-0.0123
10,CCACGTCA,-0.0688
11,AGATGTTA,-0.065
12,TGAATTCA,0.124
13,GGACATCA,0.396
14,AAAAAGTT,0.188
15,CCTACCTA,-0.129
16,AAAGCCGA,-0.101
17,CCGTGGGA,-0.0721
18,CAGAGCCC,-0.136
19,ACCCAGCC,-0.287
20,CATGATCC,-0.0855
21,GCGCCGAA,0.118
22,GGCGGTCA,-0.164
23,TAGTTAAA,0.143
24,GAGGGTCC,-0.226
25,AACTCATG,0.0668

row,Sequence,PBM E-score
1,ACGGCACG,0.0941
2,CGTATGTA,0.148
3,TACTCACA,-0.188
4,AATTGCAG,0.011
5,TTGCCCAA,0.0514
6,GTCGAGAC,0.0308
7,CGTCGTAG,-0.00158
8,CGAGCGAA,-0.00032
9,CTGAACTA,-0.083
10,CCTTGACC,-0.045
11,GGCGAGAA,0.0249
12,AGTCCGTG,-0.0088
13,GCCGTGTA,0.0282
14,CGCCCATA,-0.064
15,TAGTCAGA,0.0398
16,ATTGATAC,0.17
17,CACATAAA,0.137
18,CAACACTC,-0.105
19,GGTGTGAC,-0.0466
20,CATTCTCG,0.0388
21,CCATGGGC,-0.0729
22,GAGTCAAA,-0.165
23,AGCTAAGA,-0.103
24,ACTGTTGC,0.0443
25,GCCGACCC,-0.209

row,Sequence,PBM E-score
1,ACGTCATC,-0.0638
2,ATGGGCTC,-0.107
3,ACTCCGAT,-0.0147
4,CGATCTAG,-0.0912
5,AGACCTTG,-0.194
6,AAACCTCC,-0.213
7,AGTTCTGC,-0.111
8,ACTAATAA,0.244
9,CGCGTACG,0.106
10,AGACTTCG,-0.0572
11,ACCCCCAA,-0.17
12,ACGCCTAA,0.00941
13,CGTGAGTC,-0.0898
14,GCTACGGA,-0.0385
15,CAACACGC,-0.194
16,CGCCCATC,-0.295
17,AACAAAGA,0.139
18,AAACAGCA,0.105
19,CTGTGCGA,0.00465
20,CTGGAGTA,-0.136
21,AAAGCGCG,0.043
22,AAGTCTGC,0.0784
23,TGTTTCAA,0.194
24,ATTTCCGA,0.227
25,CTAGACCC,-0.164

row,Sequence,PBM E-score
1,GCAATATA,-0.0426
2,AAGCACAC,-0.151
3,CTATCGGA,0.194
4,ATCCCGGC,0.19
5,CAGGCTGG,-0.241
6,CTAATCCC,-0.114
7,CGACACGC,0.0622
8,ATGATGGA,-0.0021
9,ATCGATCG,0.115
10,AATAGCTC,-0.0965
11,ATCAGCGA,-0.127
12,CTTATGGA,-0.0483
13,GGTCATAC,-0.0778
14,GCCCCTCA,-0.308
15,AACGTGAA,0.0519
16,CCAATAAC,0.153
17,CTTACTGC,-0.143
18,GTTATCAA,-0.0295
19,ACCGCGAA,0.039
20,GCGACGTA,0.00383
21,CATACCCC,-0.0714
22,ACCGGCTG,-0.269
23,CAAGCTTC,0.057
24,ACGGAACA,0.0245
25,AGTCTGTA,-0.064

row,Sequence,PBM E-score
1,ATAGACCC,-0.0646
2,CAGTCGAC,0.108
3,GATGAAGA,-0.174
4,GGCTCCAA,-0.153
5,AGAGTGGC,-0.116
6,ATCGCATC,-0.118
7,GAGCCCGC,-0.245
8,CCAAATCA,-0.0883
9,CACGGAGC,0.0778
10,GGACGTAA,0.21
11,GGGAACTA,-0.0808
12,ACCCATGA,-0.158
13,GCATACCA,-0.106
14,ACCCCCGA,-0.144
15,TGGATCAA,-0.0815
16,ACGGATGC,0.0505
17,CTCTGACC,-0.19
18,CTTCTGTC,0.192
19,CGCATTTC,0.135
20,ACATGTAC,0.263
21,CGGGAAAG,-0.038
22,ACGGTCAT,0.0534

# — the supplement of paper PMC3334620
